# The list shows a part of the results.
# B1: Banana lectin (Musa acuminata) (protein)
# chain: MNGAIKVGAHGGNGGSAFDMGPAYRIISVKIFSGDVVDGVDVTFTYYGKTETRHYGGSGGTPHEIVLQEGEYLVGMAGEVANYHGAVVLGKLGFSTNKKAYGPFGNTGGTPFSLPIAAGKISGFFGRGGKFLDAIGVYLEPLEHHHHHH
# Legend:
# Test in all cases: glycan array binding signal (z-score within array); higher = stronger binding
# Settings in all cases: glycan notation: IUPAC condensed, linker removed; mutation: W10H
# [1] = target: Neu5Ac(a2-6)Gal(b1-4)GlcNAc(b1-2)Man(a1-3)[GlcNAc(b1-4)][Neu5Ac(a2-6)Gal(b1-4)GlcNAc(b1-2)Man(a1-6)]Man(b1-4)GlcNAc(b1-4)GlcNAc
# How it was run: (§1)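 The binding signal is a Z-score computed within each array. Data were drawn from 3228 arrays in the Consortium for Functional Glycomics database, restricted to those with a known protein sequence. Scores were averaged over arrays of the same protein sequence at different concentrations or buffers, and over linkers, and negative values can be taken as non-binding.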
# [2] = target: Neu5Ac(a2-6)Gal(b1-4)GlcNAc(b1-2)Man(a1-3)[Man(a1-6)]Man(b1-4)GlcNAc(b1-4)GlcNAc
# How it was run: as §1
# [3] = target: Neu5Ac(a2-6)Gal(b1-4)GlcNAc(b1-2)Man(a1-3)[Neu5Ac(a2-3)Gal(b1-4)GlcNAc(b1-2)Man(a1-6)]Man(b1-4)GlcNAc(b1-4)GlcNAc
# How it was run: as §1
# [4] = target: Neu5Ac(a2-6)Gal(b1-4)GlcNAc(b1-2)Man(a1-3)[Neu5Ac(a2-6)Gal(b1-4)GlcNAc(b1-2)Man(a1-6)]Man(b1-4)GlcNAc(b1-4)GlcNAc
# How it was run: as §1
# [5] = target: Neu5Ac(a2-6)Gal(b1-4)GlcNAc(b1-2)Man(a1-3)[Neu5Ac(a2-6)Gal(b1-4)GlcNAc(b1-2)Man(a1-6)]Man(b1-4)GlcNAc(b1-4)[Fuc(a1-6)]GlcNAc
# How it was run: as §1
# [6] = target: Neu5Ac(a2-6)Gal(b1-4)GlcNAc(b1-2)Man(a1-6)Man(b1-4)GlcNAc(b1-4)GlcNAc
# How it was run: as §1
# [7] = target: Neu5Ac(a2-6)Gal(b1-4)GlcNAc(b1-2)Man(a1-6)[Gal(b1-4)GlcNAc(b1-2)Man(a1-3)]Man(b1-4)GlcNAc(b1-4)GlcNAc
# How it was run: as §1
# [8] = target: Neu5Ac(a2-6)Gal(b1-4)GlcNAc(b1-2)Man(a1-6)[GlcNAc(b1-2)Man(a1-3)]Man(b1-4)GlcNAc(b1-4)GlcNAc
# How it was run: as §1
# [9] = target: Neu5Ac(a2-6)Gal(b1-4)GlcNAc(b1-2)Man(a1-6)[Man(a1-3)]Man(b1-4)GlcNAc(b1-4)GlcNAc
# How it was run: as §1
# [10] = target: Neu5Ac(a2-6)Gal(b1-4)GlcNAc(b1-2)[Neu5Ac(a2-6)Gal(b1-4)GlcNAc(b1-4)]Man(a1-3)[GlcNAc(b1-4)][Neu5Ac(a2-6)Gal(b1-4)GlcNAc(b1-2)[Neu5Ac(a2-6)Gal(b1-4)GlcNAc(b1-6)]Man(a1-6)]Man(b1-4)GlcNAc(b1-4)GlcNAc
# How it was run: as §1
# [11] = target: Neu5Ac(a2-6)Gal(b1-4)GlcNAc(b1-2)[Neu5Ac(a2-6)Gal(b1-4)GlcNAc(b1-4)]Man(a1-3)[GlcNAc(b1-4)][Neu5Ac(a2-6)Gal(b1-4)GlcNAc(b1-4)Man(a1-6)]Man(b1-4)GlcNAc(b1-4)GlcNAc
# How it was run: as §1
# [12] = target: Neu5Ac(a2-6)Gal(b1-4)GlcNAc(b1-2)[Neu5Ac(a2-6)Gal(b1-4)GlcNAc(b1-6)]Man(a1-6)[Neu5Ac(a2-6)Gal(b1-4)GlcNAc(b1-2)Man(a1-3)][GlcNAc(b1-4)]Man(b1-4)GlcNAc(b1-4)GlcNAc
# How it was run: as §1
# [13] = target: Neu5Ac(a2-6)Gal(b1-4)GlcNAc(b1-3)Gal(b1-3)GlcNAc
# How it was run: as §1
# [14] = target: Neu5Ac(a2-6)Gal(b1-4)GlcNAc(b1-3)Gal(b1-4)GlcNAc
# How it was run: as §1
# [15] = target: Neu5Ac(a2-6)Gal(b1-4)GlcNAc(b1-3)Gal(b1-4)GlcNAc(b1-2)Man(a1-3)[Neu5Ac(a2-6)Gal(b1-4)GlcNAc(b1-3)Gal(b1-4)GlcNAc(b1-2)Man(a1-6)]GalNAc
# How it was run: as §1
# [16] = target: Neu5Ac(a2-6)Gal(b1-4)GlcNAc(b1-3)Gal(b1-4)GlcNAc(b1-3)Gal(b1-4)GlcNAc
# How it was run: as §1
# [17] = target: Neu5Ac(a2-6)Gal(b1-4)GlcNAc(b1-3)Gal(b1-4)GlcNAc(b1-3)Gal(b1-4)GlcNAc(b1-2)Man(a1-3)[Neu5Ac(a2-6)Gal(b1-4)GlcNAc(b1-3)Gal(b1-4)GlcNAc(b1-3)Gal(b1-4)GlcNAc(b1-2)Man(a1-6)]GalNAc
# How it was run: as §1
# [18] = target: Neu5Ac(a2-6)Gal(b1-4)GlcNAc(b1-3)Gal(b1-4)GlcNAc(b1-3)GalNAc
# How it was run: as §1
# [19] = target: Neu5Ac(a2-6)Gal(b1-4)GlcNAc(b1-3)Gal(b1-4)GlcNAc(b1-3)[Neu5Ac(a2-6)Gal(b1-4)GlcNAc(b1-3)Gal(b1-4)GlcNAc(b1-6)]GalNAc
# How it was run: as §1
# [20] = target: Neu5Ac(a2-6)Gal(b1-4)GlcNAc(b1-3)Gal(b1-4)GlcNAc(b1-6)[Gal(b1-3)]GalNAc
# How it was run: as §1
# [21] = target: Neu5Ac(a2-6)Gal(b1-4)GlcNAc(b1-3)Gal(b1-4)[Fuc(a1-3)]GlcNAc(b1-3)Gal(b1-4)[Fuc(a1-3)]GlcNAc
# How it was run: as §1
# [22] = target: Neu5Ac(a2-6)Gal(b1-4)GlcNAc(b1-3)GalNAc
# How it was run: as §1
# [23] = target: Neu5Ac(a2-6)Gal(b1-4)GlcNAc(b1-3)[Neu5Ac(a2-6)Gal(b1-4)GlcNAc(b1-6)]GalNAc
# How it was run: as §1
# [24] = target: Neu5Ac(a2-6)Gal(b1-4)GlcNAc(b1-6)GalNAc
# How it was run: as §1
# [25] = target: Neu5Ac(a2-6)Gal(b1-4)GlcNAc(b1-6)[Gal(b1-3)GlcNAc(b1-3)]Gal(b1-4)Glc
# How it was run: as §1
# [26] = target: Neu5Ac(a2-6)Gal(b1-4)GlcNAc(b1-6)[Gal(b1-3)]GalNAc
# How it was run: as §1
# [27] = target: Neu5Ac(a2-6)Gal(b1-4)GlcNAc6S
# How it was run: as §1
# Neu5Ac(a2-6)GalNAc = target: Neu5Ac(a2-6)GalNAc
# How it was run: as §1
# [28] = target: Neu5Ac(a2-6)GalNAc(b1-4)GlcNAc
# How it was run: as §1
# [29] = target: Neu5Ac(a2-6)GalNAc(b1-4)GlcNAc6S
# How it was run: as §1
# [30] = target: Neu5Ac(a2-6)GlcNAc(b1-4)GlcNAc
# How it was run: as §1
binder,measurement,setting,value
B1,glycan array binding signal (z-score),[1],-0.166
same,glycan array binding signal (z-score),[2],0.661
same,glycan array binding signal (z-score),[3],-0.063
same,glycan array binding signal (z-score),[4],-0.135
same,glycan array binding signal (z-score),[5],-0.093
same,glycan array binding signal (z-score),[6],-0.065
same,glycan array binding signal (z-score),[7],-0.168
same,glycan array binding signal (z-score),[8],-0.118
same,glycan array binding signal (z-score),[9],1.79
same,glycan array binding signal (z-score),[10],-0.197
same,glycan array binding signal (z-score),[11],-0.176
same,glycan array binding signal (z-score),[12],-0.152
same,glycan array binding signal (z-score),[13],-0.193
same,glycan array binding signal (z-score),[14],-0.164
same,glycan array binding signal (z-score),[15],-0.105
same,glycan array binding signal (z-score),[16],-0.171
same,glycan array binding signal (z-score),[17],-0.148
same,glycan array binding signal (z-score),[18],-0.158
same,glycan array binding signal (z-score),[19],-0.134
same,glycan array binding signal (z-score),[20],-0.189
same,glycan array binding signal (z-score),[21],-0.134
same,glycan array binding signal (z-score),[22],-0.16
same,glycan array binding signal (z-score),[23],-0.174
same,glycan array binding signal (z-score),[24],-0.154
same,glycan array binding signal (z-score),[25],-0.184
same,glycan array binding signal (z-score),[26],-0.155
same,glycan array binding signal (z-score),[27],-0.161
same,glycan array binding signal (z-score),Neu5Ac(a2-6)GalNAc,-0.17
same,glycan array binding signal (z-score),[28],-0.19
same,glycan array binding signal (z-score),[29],-0.193
same,glycan array binding signal (z-score),[30],-0.158

# Source: the supplement of paper PMC8728848
